Data reported in PubChem BioAssay AID1345082 (National Center for Advancing Translational Sciences (NCATS), 2018).
Out of some 94,000 compounds screened, about 4,000 (4.3%) were called active. The inconclusive results got no clear call from the source; some entries with a clear call stand among them for comparison. Calls come from the whole dose curve; as a rule, active = well fitted inhibition curve with a large enough effect; inconclusive = small, poorly fitted or top-dose-only effect; inactive = no such curve, though single readings can be large or run the other way. Potencies beside an inconclusive call are fits to weak or partial responses and may not hold up.

Test: Cytotoxic Profiling in NIH 3T3 Cell Line of Diverse Libraries Using Quantitative High-Throughput Screening; note: nearly all actives have a fitted effect of over 55% in size
Settings: NIH 3T3 viability, CellTiter-Glo ATP luminescence, 48-72 h; activity change, negative = cytotoxicity: at 96.7 µM (top of the series) unless noted; series mostly up to 96.7 µM
Method in brief: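 ATP-dependent luminescence (CellTiter-Glo) served as the viability signal for NIH 3T3 cells treated with compound for 48 or 72 hr at 37 °C.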
% is set by controls: 0 for no effect and ±100 for the full control effect; potency is the fitted concentration of half-maximal effect; tags give direction and shape of the fitted curve.

Question: With `O=C(c1n[nH]c2c1CCCCCC2)N1CCC(Cc2nncn2CC2CC2)CC1` as the compound, how does the “activity change, negative = cytotoxicity” value read?
Answer: Its value is inactive: -4.85%.

Question: For `CNC(=O)CCn1ncc2cc(OC3CCc4cccc(-c5ccc(OC)cc5)c43)ccc21` (stereo not drawn), which Potency is on record?
Answer: The Potency was active: 50.1 µM.

Question: For `Cc1noc(C)c1[S+](=O)([O-])N1CC(Oc2ccc(F)c(F)c2)C1`, which “outcome” value is on record?
Answer: The value was “inactive”.

Question: Which Potency does the source give for `COc1ccccc1-c1ccc2ncc(Nc3ccnc(N4CCOCC4)c3)n2n1` here?
Answer: Its Potency is inconclusive: 56.2 µM [inhibitor, partial curve, poor fit].

Question: With `O=C(NC1CCc2nnc(C3CC3)n2CC1)c1cc(C2CC2)[nH]n1` (stereo not drawn) as the compound, how does the “activity change, negative = cytotoxicity” value read?
Answer: The value was inactive: -9.64%.

Question: With `O=C(NC1CCCC1)c1ccc(CN2C(=O)NC3(CCS(=O)(=O)CC3)C2=O)cc1` as the compound, how does the “outcome” value read?
Answer: Its value is “inactive”.

Question: Which Potency does the source give for `CCOCCOC1CCN(C(=O)Nc2ccc(C(=O)OC)cc2)CC1` here?
Answer: Its Potency is inconclusive: 56.2 µM [inhibitor, partial curve, poor fit].

Question: With `O=C(C1CCCN([S+](=O)([O-])c2cccc(C(F)(F)F)c2)C1)N1CCCC(c2nc3ccncc3[nH]2)C1` (stereo not drawn) as the compound, how does the Potency read?
Answer: Its Potency is inconclusive: 39.8 µM [inhibitor, partial curve].

Question: With `CN(C)c1ccc(-c2nnnn2[C@H]2CO[C@H]3[C@@H]2OC[C@H]3OC(=O)Nc2cccc(C#N)c2)cc1` as the compound, how does the Potency read?
Answer: The Potency was inconclusive: 50.1 µM [inhibitor, partial curve].

Question: For `CCOC(=O)C1CCN(C(=O)Cc2cccn2-c2cccc(Cl)c2)CC1`, which Potency is on record?
Answer: The Potency was inconclusive: 50.1 µM [inhibitor, partial curve, poor fit].

Question: With `O=C(Nc1cccc(C(F)(F)F)c1)N[C@H]1CO[C@H]2[C@@H]1OC[C@@H]2Nc1nccc(-c2ccc(-c3ccccc3)cc2)n1` as the compound, how does the Potency read?
Answer: The Potency was active: 31.6 µM.

Question: Which Potency does the source give for `CN(Cc1ccc2nonc2c1)Cc1ccccc1OCC(O)CN1CCCCC1` (stereo not drawn) here?
Answer: Its Potency is inconclusive: 50.1 µM [inhibitor, partial curve, poor fit].

Question: For `O=C(NC[C@H]1Cn2cc(-c3ccccc3)nc2CO1)c1ccc2c(c1)OCO2`, which Potency is on record?
Answer: Its Potency is inconclusive: 70.8 µM [inhibitor, partial curve].

Question: For `COc1ccccc1Nc1ccnc(N2CCC(C(=O)NC3CCCC3)CC2)n1`, which Potency is on record?
Answer: The Potency was inconclusive: 50.1 µM [inhibitor, partial curve, poor fit].

Question: With `Cn1cnc(S(=O)(=O)N2CCCC(c3[nH]ccc3C(N)=O)C2)c1` (stereo not drawn) as the compound, how does the “activity change, negative = cytotoxicity” value read?
Answer: Its value is inactive: -5.32%.

Question: Which Potency does the source give for `O=c1ccc(-c2cc(-c3cccc(C(F)(F)F)c3)cn3cncc23)c[nH]1` here?
Answer: Its Potency is inconclusive: 44.7 µM [inhibitor, partial curve, poor fit].

Question: Which Potency does the source give for `COc1ccc(Nc2cnc3ccc(-c4ccccc4)nn23)cn1` here?
Answer: The Potency was active: 39.8 µM.

Question: With `O=C(Cc1ccc(F)cc1)Nc1cc(-c2ccncc2)nn1-c1ccccc1` as the compound, how does the Potency read?
Answer: The Potency was inconclusive: 44.7 µM [inhibitor, partial curve, poor fit].
